These results are taken from patent publication US20230093708A1 (DUKE UNIVERSITY, published 2023).

Test [1] has as its target T1, human αvβ3 integrin (human, UniProt P06756 31-992; P05106 27-718).
T1 construct: extracellular domain; also called ectodomain of human αvβ3 integrin; the integrin
As to the kind of experiment: SPR (Biacore T200), human αvβ3 integrin amine-coupled to a CM5 chip, 25 °C, 1:1 model. On the procedure:
(§1) The surface plasmon resonance experiments were performed using Biacore T200. Purified human αvβ3 integrin (Chemicon, Temecula, Calif.) were immobilized on research grade CM5 sensor chips using an amine coupling kit (BIAcore, Piscataway, N.J.). The integrin was diluted in 10 mM sodium acetate buffer (pH 4.5) for conjugation with a surface density of approximately 600 resonance units (RU). The measurements of binding events were performed using block co-polypeptide concentrations ranging between 2.5 and 10 μM. The block polypeptides were diluted in HBS-P buffer (10 mM HEPES, 140 mM NaCl, 0.005% Triton-X, pH 7.4) supplemented with 2 mM CaCl₂, and injected into the flow cells at a flow rate of 30 μL·min⁻¹ for 4 min. The complex was allowed for dissociation for 10 min. The surface was regenerated with 10 mM Glycine-HCl (pH 2.5) at a flow rate of 30 μL·min⁻¹ for 45 s, followed by 10 mM Glycine-HCl (pH 2.0) at a flow rate of 30 μL·min⁻¹ for 30 s. The surface was regenerated using 10 mM glycine-HCL (pH 2.0). Kinetic modeling and simulations were performed using BIAevaluation software with the heterogeneous ligand model for self-assembled proteins and with a 1:1 ligand model for the unimeric protein (RLP20-ELP80-Fn3). The equilibrium binding constants (KD1 and KD2) for each experiment were calculated by dividing kinetic dissociation rate (koff) by association rate (kₒₙ), from which the mean K_{D1/2} was derived. All SPR measurements were carried out at 25° C. The SPR measurements were carried out using polypeptide concentrations ranging between 2.5 and 10 μM. Goodness-of-fit was evaluated by analyzing residual plots and residual sum of squares.
We next used surface plasmon resonance (SPR) to characterize the avidity of the RLPXX-ELP80-Fn3 (SEQ ID NO: 95-97) fusions to the ectodomain of human αvβ3 integrin. SPR sensorgrams were generated for binding of the Fn3-functionalized RLP-ELP80 block co-polypeptides at concentrations ranging between 2.5 and 10 μM. […]
For orientation: In SPR one partner is held on a chip, and binding of the other changes the refractive index at the surface.

Test [2] concerns the target T1, human αvβ3 integrin. Put plainly: SPR (Biacore T200), integrin immobilised on CM5 chip, 2.5-10 µM polypeptide. As for the experimental part: as §1, with “Kinetic modeling and simulations were performed using BIAevaluation software with the heterogeneous ligand model for self-assembled proteins and with a 1:1 ligand model for the unimeric protein (RLP20-ELP80-Fn3).” left out, “All SPR measurements were carried out at 25° C. The SPR measurements were carried out using polypeptide concentrations ranging between 2.5 and 10 μM.” left out, “squares. […]” for “squares.”

Test [3] addresses T1, human αvβ3 integrin. Put plainly: SPR (Biacore T200), human αvβ3 integrin amine-coupled to a CM5 chip, 25 °C, heterogeneous ligand model. On the procedure:
as §1
We next used surface plasmon resonance (SPR) to characterize the avidity of the RLPXX-ELP80-Fn3 (SEQ ID NO: 95-97) fusions to the ectodomain of human αvβ3 integrin. SPR sensorgrams were generated for binding of the Fn3-functionalized RLP-ELP80 block co-polypeptides at concentrations ranging between 2.5 and 10 μM. As the core block size increases, the kₒₙ increases in magnitude, and the koff decreases in magnitude, both consistent with the increase in size of the binding unit (unimer or larger diameter micelle).

The target in test [4] is αvβ3 integrin on αvβ3-transfected K562 cells (UniProt P06756 31-1048; P05106 27-788). Put plainly: cell-based or functional assay.

T1 sequence (P06756 31-992, chain 1 of 2): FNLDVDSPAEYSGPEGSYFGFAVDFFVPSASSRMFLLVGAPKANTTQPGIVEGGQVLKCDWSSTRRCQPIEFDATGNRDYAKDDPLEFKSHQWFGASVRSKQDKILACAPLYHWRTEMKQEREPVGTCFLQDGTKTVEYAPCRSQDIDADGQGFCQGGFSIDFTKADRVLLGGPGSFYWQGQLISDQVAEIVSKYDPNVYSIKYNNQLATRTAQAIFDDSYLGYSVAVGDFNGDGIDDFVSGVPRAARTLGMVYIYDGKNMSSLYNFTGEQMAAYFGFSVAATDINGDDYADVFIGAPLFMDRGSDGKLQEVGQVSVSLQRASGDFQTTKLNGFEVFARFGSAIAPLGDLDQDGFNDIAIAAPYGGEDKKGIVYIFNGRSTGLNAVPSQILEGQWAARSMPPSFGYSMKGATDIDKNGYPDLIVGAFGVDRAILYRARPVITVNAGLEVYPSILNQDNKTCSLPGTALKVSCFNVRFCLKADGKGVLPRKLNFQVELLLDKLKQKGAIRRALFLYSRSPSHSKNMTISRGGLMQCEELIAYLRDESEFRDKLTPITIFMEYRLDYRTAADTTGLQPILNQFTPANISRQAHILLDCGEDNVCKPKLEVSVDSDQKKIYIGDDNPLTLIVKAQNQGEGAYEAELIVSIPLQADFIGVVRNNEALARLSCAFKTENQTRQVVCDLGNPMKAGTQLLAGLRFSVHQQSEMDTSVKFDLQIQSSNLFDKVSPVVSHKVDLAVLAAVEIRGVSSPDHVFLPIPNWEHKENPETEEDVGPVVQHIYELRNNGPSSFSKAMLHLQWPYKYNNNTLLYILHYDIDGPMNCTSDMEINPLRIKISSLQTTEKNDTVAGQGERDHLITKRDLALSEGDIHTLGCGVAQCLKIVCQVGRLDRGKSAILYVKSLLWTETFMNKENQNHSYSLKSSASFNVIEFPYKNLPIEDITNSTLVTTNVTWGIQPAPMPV
T1 sequence (P05106 27-718, chain 2 of 2, further chain): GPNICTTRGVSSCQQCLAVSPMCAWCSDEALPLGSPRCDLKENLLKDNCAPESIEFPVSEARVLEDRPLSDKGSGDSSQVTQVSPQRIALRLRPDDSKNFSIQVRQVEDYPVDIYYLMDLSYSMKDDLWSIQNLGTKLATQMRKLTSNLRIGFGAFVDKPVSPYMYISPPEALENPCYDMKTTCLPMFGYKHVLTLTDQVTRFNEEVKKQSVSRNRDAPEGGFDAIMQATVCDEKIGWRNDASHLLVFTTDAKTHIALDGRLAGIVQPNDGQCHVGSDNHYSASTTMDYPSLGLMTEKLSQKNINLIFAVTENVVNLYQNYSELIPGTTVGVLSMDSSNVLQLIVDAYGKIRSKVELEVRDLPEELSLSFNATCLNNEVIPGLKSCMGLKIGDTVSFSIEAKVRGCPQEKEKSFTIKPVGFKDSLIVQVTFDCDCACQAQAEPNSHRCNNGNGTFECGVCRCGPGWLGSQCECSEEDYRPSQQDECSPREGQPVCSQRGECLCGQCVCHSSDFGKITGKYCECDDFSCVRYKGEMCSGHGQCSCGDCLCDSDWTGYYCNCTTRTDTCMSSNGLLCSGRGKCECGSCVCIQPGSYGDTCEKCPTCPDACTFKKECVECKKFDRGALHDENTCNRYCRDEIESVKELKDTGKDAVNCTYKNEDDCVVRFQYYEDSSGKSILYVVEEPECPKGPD

B1: RLP20-ELP80-Fn3 (designed binder)
chain: QYPSDGRGQYPSDGRGQYPSDGRGQYPSDGRGQYPSDGRGQYPSDGRGQYPSDGRGQYPSDGRGQYPSDGRGQYPSDGRGQYPSDGRGQYPSDGRGQYPSDGRGQYPSDGRGQYPSDGRGQYPSDGRGQYPSDGRGQYPSDGRGQYPSDGRGQYPSDGRGGAGVPGGGVPGAGVPGGGVPGAGVPGGGVPGAGVPGGGVPGAGVPGGGVPGAGVPGGGVPGAGVPGGGVPGAGVPGGGVPGAGVPGGGVPGAGVPGGGVPGAGVPGGGVPGAGVPGGGVPGAGVPGGGVPGAGVPGGGVPGAGVPGGGVPGAGVPGGGVPGAGVPGGGVPGAGVPGGGVPGAGVPGGGVPGAGVPGGGVPGAGVPGGGVPGAGVPGGGVPGAGVPGGGVPGAGVPGGGVPGAGVPGGGVPGAGVPGGGVPGAGVPGGGVPGAGVPGGGVPGAGVPGGGVPGAGVPGGGVPGAGVPGGGVPGAGVPGGGVPGAGVPGGGVPGAGVPGGGVPGAGVPGGGVPGAGVPGGGVPGAGVPGGGVPGAGVPGGGVPGAGVPGGGVPGAGVPGGGVPVSDVPRDLEVVAATPTSLLISWDAPAVTVRYYRITYGETGGNSPVQEFTVPGSKSTATISGLKPGVDYTITVYAVTGRGDSPASSKPISINYRTG
notes: also called unimer; monomer ligand
In the case of B1, in the test with human αvβ3 integrin [1], the affinity, expressed as Kd, was 954 nM; the off-rate constant (koff) amounted to 0.00457 s⁻¹; the kon turned out to be 4790 M⁻¹ s⁻¹.

B2: RLP40-ELP80-Fn3 (designed binder)
chain: QYPSDGRGQYPSDGRGQYPSDGRGQYPSDGRGQYPSDGRGQYPSDGRGQYPSDGRGQYPSDGRGQYPSDGRGQYPSDGRGQYPSDGRGQYPSDGRGQYPSDGRGQYPSDGRGQYPSDGRGQYPSDGRGQYPSDGRGQYPSDGRGQYPSDGRGQYPSDGRGQYPSDGRGQYPSDGRGQYPSDGRGQYPSDGRGQYPSDGRGQYPSDGRGQYPSDGRGQYPSDGRGQYPSDGRGQYPSDGRGQYPSDGRGQYPSDGRGQYPSDGRGQYPSDGRGQYPSDGRGQYPSDGRGQYPSDGRGQYPSDGRGQYPSDGRGQYPSDGRGGAGVPGGGVPGAGVPGGGVPGAGVPGGGVPGAGVPGGGVPGAGVPGGGVPGAGVPGGGVPGAGVPGGGVPGAGVPGGGVPGAGVPGGGVPGAGVPGGGVPGAGVPGGGVPGAGVPGGGVPGAGVPGGGVPGAGVPGGGVPGAGVPGGGVPGAGVPGGGVPGAGVPGGGVPGAGVPGGGVPGAGVPGGGVPGAGVPGGGVPGAGVPGGGVPGAGVPGGGVPGAGVPGGGVPGAGVPGGGVPGAGVPGGGVPGAGVPGGGVPGAGVPGGGVPGAGVPGGGVPGAGVPGGGVPGAGVPGGGVPGAGVPGGGVPGAGVPGGGVPGAGVPGGGVPGAGVPGGGVPGAGVPGGGVPGAGVPGGGVPGAGVPGGGVPGAGVPGGGVPGAGVPGGGVPGAGVPGGGVPVSDVPRDLEVVAATPTSLLISWDAPAVTVRYYRITYGETGGNSPVQEFTVPGSKSTATISGLKPGVDYTITVYAVTGRGDSPASSKPISINYRTG
notes: Self-assembled spherical micelle; In the cell assays about 10% of the chains carried Alexa488; also called spherical micelles; Fn3-decorated spherical micelles
In the case of B2, the “fold increase in avidity against RLP20-ELP80-Fn3” value with human αvβ3 integrin [2] is 10 fold. In the test with human αvβ3 integrin [3], this molecule gave a Kd of 78.9 nM, a koff of 0.000335 s⁻¹ and a kon of 4240 M⁻¹ s⁻¹. In test [4], the “fold of geometric fluorescent intensity mean over the undecorated control” value is 2 fold.

B3: RLP80-ELP80-Fn3 (designed binder)
chain: QYPSDGRGQYPSDGRGQYPSDGRGQYPSDGRGQYPSDGRGQYPSDGRGQYPSDGRGQYPSDGRGQYPSDGRGQYPSDGRGQYPSDGRGQYPSDGRGQYPSDGRGQYPSDGRGQYPSDGRGQYPSDGRGQYPSDGRGQYPSDGRGQYPSDGRGQYPSDGRGQYPSDGRGQYPSDGRGQYPSDGRGQYPSDGRGQYPSDGRGQYPSDGRGQYPSDGRGQYPSDGRGQYPSDGRGQYPSDGRGQYPSDGRGQYPSDGRGQYPSDGRGQYPSDGRGQYPSDGRGQYPSDGRGQYPSDGRGQYPSDGRGQYPSDGRGQYPSDGRGQYPSDGRGQYPSDGRGQYPSDGRGQYPSDGRGQYPSDGRGQYPSDGRGQYPSDGRGQYPSDGRGQYPSDGRGQYPSDGRGQYPSDGRGQYPSDGRGQYPSDGRGQYPSDGRGQYPSDGRGQYPSDGRGQYPSDGRGQYPSDGRGQYPSDGRGQYPSDGRGQYPSDGRGQYPSDGRGQYPSDGRGQYPSDGRGQYPSDGRGQYPSDGRGQYPSDGRGQYPSDGRGQYPSDGRGQYPSDGRGQYPSDGRGQYPSDGRGQYPSDGRGQYPSDGRGQYPSDGRGQYPSDGRGQYPSDGRGQYPSDGRGQYPSDGRGQYPSDGRGGAGVPGGGVPGAGVPGGGVPGAGVPGGGVPGAGVPGGGVPGAGVPGGGVPGAGVPGGGVPGAGVPGGGVPGAGVPGGGVPGAGVPGGGVPGAGVPGGGVPGAGVPGGGVPGAGVPGGGVPGAGVPGGGVPGAGVPGGGVPGAGVPGGGVPGAGVPGGGVPGAGVPGGGVPGAGVPGGGVPGAGVPGGGVPGAGVPGGGVPGAGVPGGGVPGAGVPGGGVPGAGVPGGGVPGAGVPGGGVPGAGVPGGGVPGAGVPGGGVPGAGVPGGGVPGAGVPGGGVPGAGVPGGGVPGAGVPGGGVPGAGVPGGGVPGAGVPGGGVPGAGVPGGGVPGAGVPGGGVPGAGVPGGGVPGAGVPGGGVPGAGVPGGGVPGAGVPGGGVPGAGVPGGGVPGAGVPGGGVPVSDVPRDLEVVAATPTSLLISWDAPAVTVRYYRITYGETGGNSPVQEFTVPGSKSTATISGLKPGVDYTITVYAVTGRGDSPASSKPISINYRTG
notes: Self-assembled mixture of spherical and worm-like micelles; every other place prints 97; In the cell assays about 10% of the chains carried Alexa488; also called worm-like micelles; Fn3-decorated worm-like micelles
Turning to B3, in the test with human αvβ3 integrin [2], the “fold increase in avidity against the monomer ligand (RLP20-ELP80-Fn3)” value is roughly 1000 fold. In the test with human αvβ3 integrin [3], binding was put at a Kd of 0.786 nM, the koff amounted to 3.2e-06 s⁻¹ and the kon was determined as 4060 M⁻¹ s⁻¹. For the same molecule, in test [4], the “fold increase in cell uptake compared to spherical micelles” value came to 5 fold and the “fold of geometric fluorescent intensity mean over the undecorated control” value turned out to be 3 fold.

What is called Kd is the concentration at which binding is half-saturated. The low end stands for higher affinity, the high end for lower affinity. One may read the koff as the rate constant with which the complex falls apart. A lower koff goes with a long-lived complex. One may read the kon as the second-order rate constant of association. A lower kon goes with slow association.
